# Laboratory results from PubChem BioAssay AID1671194 (National Center for Advancing Translational Sciences (NCATS), 2021).
# Screen size: about 140,000 compounds; about 240 (0.17%) were called active. Inconclusive results, whose numbers are uncertain, are shown with a selection of clear calls. Calls follow the shape of the dose curve; as a rule, active = well fitted inhibition curve with a large enough effect; inconclusive = small, poorly fitted or top-dose-only effect; inactive = no such curve, though single readings can be large or run the other way. Potencies beside an inconclusive call are fits to weak or partial responses and may not hold up.
# Assay: Primary qHTS assay for inhibitors of alpha-synuclein gene (SNCA) expression; also: nearly all actives have a fitted effect of over 45% in size;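 as to activity change, negative = inhibition: plate controls were DMSO cells for no effect and cell-free wells for full effect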
# Settings: HEK-293 SNCA-luciferase knock-in, luminescence, 24 h; activity change, negative = inhibition: at 57.2 µM (top of the series) unless noted
# Potency is read from the fitted curve at half-maximal effect; tags tell the direction and shape of the fitted curve.
Structure (SMILES),Potency,"activity change, negative = inhibition"
CC(C)[S+](=O)([O-])N1CCCC1c1nnc2n1CCNC2 (configuration not stated),"inconclusive: 44.7 µM [inhibitor, single point]",–
Cc1noc2c(Nc3ccc(N4CCOCC4)cc3)cc(-c3cccs3)nc12,"inconclusive: 63.1 µM [inhibitor, partial curve, poor fit]",–
CCN(c1ccccc1)S(=O)(=O)c1nnc(NC(=O)c2ccccc2OC)s1,"inconclusive: 22.4 µM [inhibitor, single point]",–
O=C(N1CCCN(c2cc(-c3ccc(Cl)cc3)[nH]n2)CC1)C1(c2ccccc2)CC1,"inconclusive: 17.8 µM [inhibitor, single point]",–
COc1ccc(Cl)cc1NC(=O)CSc1cn(CC(=O)N2CCCCC2)c2ccccc12,"inconclusive: 7.08 µM [inhibitor, partial curve, poor fit]",–
Cc1cc(C)c(S(=O)(=O)N2CCn3c(nn(CC4CC4)c3=O)C2)cc1C,"inconclusive: 5.01 µM [inhibitor, partial curve, poor fit]",–
COCCN1C(=O)[C@H]2CN(CCC(C)C)C[C@H]2C1=O,"inconclusive: 39.8 µM [inhibitor, single point]",–
COc1cccc(NC(=O)CSc2nnc(-c3cccc(OC)c3)o2)c1,"inconclusive: 39.8 µM [inhibitor, single point]",–
COc1ccc(S(=O)(=O)c2c(Nc3ccccc3F)sc(C(=O)c3cccc(OC)c3)c2N)cc1,"inconclusive: 3.16 µM [inhibitor, single point]",–
COc1cccc(C2CC(=O)Nc3c2ccc(C)c3C)c1OC (configuration not stated),"inconclusive: 39.8 µM [inhibitor, single point]",–
COc1cc(OC)c(NC(=O)N2CCc3c([nH]c4ccccc34)C2c2ccccc2F)cc1Cl (configuration not stated),"inconclusive: 35.5 µM [inhibitor, partial curve, poor fit]",–
Cc1ccc2sc(-c3ccc(N)cc3)nc2c1,"inconclusive: 3.55 µM [inhibitor, full curve, poor fit]",–
Cc1ccc(Cl)cc1N1CCN(C(=O)c2cnn(C)c2C2CCN(C(=O)OC(C)(C)C)CC2)CC1,"inconclusive: 20 µM [inhibitor, single point]",–
N#Cc1cccc(NC(=O)N2CCc3c(nc(-c4ccc(F)cc4)[nH]c3=O)C2)c1,–,inactive: 2.21%
CCOc1ccc2nc(N3CCN(C(=O)c4ccco4)CC3)sc2c1,"inconclusive: 39.8 µM [inhibitor, single point]",–
O=C1CC2CCN(C(=O)c3ccccc3)CC2CCN1 (configuration not stated),–,inactive: -22.7% [at 87.6 µM]
CC1CCc2nn3ccn(CC(=O)Nc4ccc(C(F)(F)F)cc4)c(=O)c3c2C1 (configuration not stated),"inconclusive: 2.82 µM [inhibitor, partial curve, poor fit]",–
O=S(=O)(c1ccc(F)cc1)N(CC(O)Cn1c2ccccc2c2ccccc21)c1ccccc1 (configuration not stated),"inconclusive: 39.8 µM [inhibitor, single point]",–
CC1(C(=O)N2CCC(c3ccccc3)CC2)COCc2cnc(Nc3ccccc3)nc21 (configuration not stated),"inconclusive: 63.1 µM [inhibitor, partial curve, poor fit]",–
COc1ccc2c(c1)c(CN1CCOCCNC(=O)CC1)cn2C(C)C,–,inactive: -4.31%
CN1CCCN(C(=O)c2cccc(-c3ccc(C=C4C(=O)Nc5ccc(Cl)cc54)o3)c2)CC1,"inconclusive: 21.5 µM [inhibitor, partial curve, poor fit]",–

Structure (SMILES),Potency,"activity change, negative = inhibition"
NC(=O)c1cnc(-c2ccc(C3(N)CCC3)cc2)c(-c2ccccc2)c1,"inconclusive: 3.41 µM [inhibitor, full curve, poor fit]",–
COc1ccc(CNC(=O)[C@@H]2Cc3cn(Cc4cccnc4)c4cccc(c34)[C@H](CC(C)C)N2)cc1,"inconclusive: 39.8 µM [inhibitor, single point]",–
O=C1CO[C@H]2CCN(Cc3ccccc3F)CC[C@@H]2N1CCN1CCCC1,"inconclusive: 8.91 µM [inhibitor, single point]",–
CCOc1ccccc1NC(=O)c1c2c(nc3ccccc13)C(=O)N(C1CCCCC1)C2,"inconclusive: 2.82 µM [inhibitor, single point]",–
Cc1cc(Nc2cc(CN3CCOCC3)c3nc(C)c(Cc4ccc(Cl)cc4F)n3n2)n[nH]1,"inconclusive: 7.64 µM [inhibitor, full curve, poor fit]",–
CO[C@H]1/C=C\O[C@@]2(C)Oc3c(C)c(O)c4c(O)c(c5c(nc6cc(C)ccn65)c4c3C2=O)NC(=O)C(C)=CC=C[C@H](C)[C@H](O)[C@@H](C)[C@@H](O)[C@@H](C)[C@H](OC(C)=O)[C@H]1C,"inconclusive: 3.41 µM [inhibitor, partial curve, poor fit]",–
CC[C@@]1(O)C(=O)OCc2c1cc1n(c2=O)Cc2cc3c(CN(C)C)c(O)ccc3nc2-1,"inconclusive: 0.242 µM [inhibitor, full curve]",–
CN(Cc1ccno1)Cc1cn(C)nc1-c1ccc(C2CCCCC2)cc1,–,inactive: -5.08%
O=C(c1ccc(CS(=O)(=O)c2ccc(Br)cc2)o1)N1CCN(c2ccc(F)cc2)CC1,–,inactive: 47%
Cn1cccc1CN1CCC(N2CCOCC2=O)CC1,"inconclusive: 1 µM [inhibitor, full curve, poor fit]",–
O=C(NC1CCCCC1)c1ccc(CSc2nc3cccnc3n2Cc2cccc(F)c2)cc1,"inconclusive: 39.8 µM [inhibitor, single point]",–
Fc1ccc(CN2CCOC[C@H]2c2ncc(-c3cccc(Cl)c3)[nH]2)cc1,"inconclusive: 56.2 µM [inhibitor, single point]",–
CC(NC(=O)c1csc(N2CCN(c3ccccc3F)CC2)n1)c1ccccc1 (configuration not stated),–,inactive: -6.28%
Cc1ccc(C(=O)NCc2nnc3cc(-c4nc(C(C)C)no4)ccn23)cc1,–,inactive: 6.71%
O=C(NCc1ccco1)c1ccc2c(c1)N(Cc1ccccc1)C(=O)c1ccccc1S2,"inconclusive: 22.4 µM [inhibitor, single point]",–
Clc1ccccc1C1(c2ccnc(-c3ccccc3)n2)CCNCC1,–,inactive: -10.7%
CC(C)(C)c1nc(C(=O)NCc2ccc(F)cc2)n2ccccc12,–,inactive: 4.44%
O=C(NC1CCCCCC1)c1cc2n(n1)CC(c1ccc(Cl)cc1)OC2 (configuration not stated),"inconclusive: 0.631 µM [inhibitor, full curve, poor fit]",–
CCNC(=O)c1n[nH]c2c1CN(C(=O)c1ccc(OC(F)(F)F)cc1)CC2,"inconclusive: 3.55 µM [inhibitor, partial curve, poor fit]",–
Cc1ccc(NC(=O)c2cc(C(C)(C)C)nc3c2cnn3C)cc1,"inconclusive: 20 µM [inhibitor, single point]",–
O=C(NCc1ccc(F)cc1)c1ccc2nnc(Cc3ccco3)n2c1,"inconclusive: 39.8 µM [inhibitor, single point]",–

Structure (SMILES),Potency,"activity change, negative = inhibition"
N#C/C(=C\c1ccc(OCc2ccc(Cl)cc2Cl)cc1)c1nc2ccccc2[nH]1,"inconclusive: 2 µM [inhibitor, single point]",–
Cc1ccc(S(=O)(=O)N2CCC(CCC(=O)NCCCc3ccccc3)CC2)cc1,"inconclusive: 31.6 µM [inhibitor, single point]",–
O=C(N1CCC2(CCCCO2)CC1)C1(c2ccccc2)CC1,–,inactive: -3.21%
COc1ccc(-c2noc(CSc3nnc(C)n3-c3ccc(F)cc3)n2)cc1,"inconclusive: 7.08 µM [inhibitor, single point]",–
COc1ccc(CN(C(=O)c2ccco2)c2ccc(CC(=O)NCc3ccccc3)cc2)cc1,–,inactive: -20.8%
COc1ccc(-c2[nH]nc3ncc(-c4ccccc4O)nc23)cc1F,"inconclusive: 2.82 µM [inhibitor, full curve]",–
COC(=O)[C@H](NC(=O)C1=C[C@@H](NC(=O)CC2(CC(=O)O)CCCC2)[C@@H](O)[C@H](O)C1)C(C)C,"inconclusive: 6.31 µM [inhibitor, single point]",–
Cn1cc(-c2cccc(CCOc3cnc4c(ccn4CC(=O)O)c3)c2)cn1,–,inactive: 27.4% [at 87.6 µM]
CN1CCN(C(=O)[C@@H]2CCC[C@@H](NCc3cccc4c3OCO4)CN(C)C(=O)C2)CC1,–,inactive: 0.435% [at 87.6 µM]
COc1ccc(C(=O)N2CCC3(CC2)N=C(c2cccc(Br)c2)NO3)c(OC)c1,"inconclusive: 35.5 µM [inhibitor, single point]",–
Cc1cnc(C2CCOCC2)n1C1CCN(C(=O)NCCc2ccccc2)CC1,–,inactive: 3.51%
Oc1cc(O)cc(/C=C/c2ccc(O)c(O)c2)c1,"inconclusive: 39.8 µM [inhibitor, single point]",–
COCCNC(=O)c1cc(-c2cccc(C(F)(F)F)c2)c2cccn2n1,–,inactive: 5.03%
O=C(NCc1ccncc1)c1csc(N2CCN(c3ccccc3F)CC2)n1,"inconclusive: 35.5 µM [inhibitor, partial curve, poor fit]",–
Cc1ccc(C(=O)O)cc1NC(=O)c1nsc2ccccc12,"inconclusive: 39.8 µM [inhibitor, single point]",–
Cn1c(Cn2cnc3c2C(C)(C)OC3(C)C)nnc1C1CC(N)C1 (configuration not stated),–,inactive: 3.08%
O=C(COc1ccc(F)cc1)N1CCCCC1c1nc(CCOCC2CCCC2)no1 (configuration not stated),"inconclusive: 39.8 µM [inhibitor, single point]",–
COc1cc(OC)cc(-n2c(=O)c3sccc3n(Cc3ccc(F)cc3)c2=O)c1,"inconclusive: 2.82 µM [inhibitor, single point]",–
COc1cc(OC)c(NC(=O)Nc2ccc3c(c2)N(C)C(=O)c2ccccc2S3)cc1Cl,"inconclusive: 7.08 µM [inhibitor, single point]",–
Cc1ccc(-c2onc(C)c2C)cc1S(=O)(=O)N1CCN(c2ccccc2F)CC1,"inconclusive: 39.8 µM [inhibitor, partial curve, poor fit]",–
